Results: PubChem BioAssay AID686978 (National Center for Advancing Translational Sciences (NCATS), 2013)
“And” between values parts separate entries of the source, which are not always exact repeats. Equal values may be shown once. The campaign covered roughly 420,000 compounds. About 64,000 (15%) were called active. The shares of active, inactive and inconclusive entries below differ from those in the screen. Calls come from the whole dose curve; as a rule, active = well fitted inhibition curve with a large enough effect; inconclusive = small, poorly fitted or top-dose-only effect; inactive = flat fitted curve, though single readings scatter. Where the call is inconclusive, the potency comes from a doubtful curve fit.

test: qHTS for Inhibitors of human tyrosyl-DNA phosphodiesterase 1 (TDP1): qHTS in cells in absence of CPT; settings: DT40 Tdp1-/- hTDP1 cells, no CPT, ATP luminescence, 48 h; activity change, negative = growth inhibition: at 46.2 µM (top of the series) unless noted; note: nearly all actives have a fitted effect of over 55% in size
Procedure, shortened: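 A cellular qHTS used chicken DT40 cells lacking endogenous Tdp1 but carrying stably transfected human TDP1. Compounds were applied without camptothecin, and cell growth kinetics were judged by ATP-dependent luminescence after ≥48 hr.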
% is set by controls: 0 for no effect and ±100 for the full control effect; potency is the fitted concentration of half-maximal effect; tags give direction and shape of the fitted curve.

Row | SMILES | Potency | activity change, negative = growth inhibition
1 | CC1(C)C(C(=O)N2CCN(c3ccc(Cl)cc3)CC2)C1(C)C | active: 18.4 µM | 
2 | COc1ccc(CNC(=O)C2CCN(c3nc(OC)nc(OC)n3)CC2)cc1 | active: 16.4 µM | 
3 | CCOC(=O)C1=C[C@@H](OC(CC)CC)[C@H](NC(C)=O)[C@@H](N)C1 |  | inactive: -15.7%
4 | C=C1C(C)C2C(Cc3ccccc3)NC(=O)C23C(OC(C)=O)C=CC(C)(O)CC(C)CC=CC3C1O (configuration not stated) | active: 0.731 µM | 
5 | O=C(Cn1ncc2c3ccccc3n(Cc3ccc(F)cc3)c2c1=O)N1CCC2(CC1)OCCO2 | active: 3.26 µM | 
6 | O=C(OCCN1CCCCC1)C(O)(c1ccccc1)c1ccccc1 |  | inactive: -0.538%
7 | O=C1NCc2c1c1c3ccccc3[nH]c1c1[nH]c3ccccc3c21 | active: 2.82 µM | 
8 | NNC(=O)c1ccc(Cl)cc1 | inconclusive: 8.2 µM [inhibitor, partial curve] | 
9 | O=S(=O)(c1cc(Cl)cc(Cl)c1)N1Cc2cc(N3CCOCC3)ccc2-n2nncc2C1 | inconclusive: 29.1 µM [inhibitor, single point] | 
10 | O=C(CN1C(=O)CN=C(c2ccccc2)c2ccccc21)Nc1cccc(C(F)(F)F)c1 | inconclusive: 29.1 µM [inhibitor, single point] | 
11 | Fc1ccccc1CCNCc1cccc2ccccc12 | inconclusive: 16.4 µM [inhibitor, single point] | 
12 | C#C[C@@]1(O)CCC2C3CCC4=C/C(=N/OCC(=O)NC(C(=O)O)C(C)O)CC[C@]4(C)C3CC[C@@]21C (some centres not stated) |  | inactive: -13.3%
13 | CCCC1=Nc2cc(C(=O)NC3CCC(C)CC3)ccc2Sc2ccccc21 (configuration not stated) | active: 4.11 µM | 
14 | O=C1Nc2ccc(Br)cc2C(c2ccccc2Cl)=NC1O (configuration not stated) | inconclusive: 23.1 µM [inhibitor, partial curve] | 
15 | O=C(c1cccc(C(F)(F)F)c1)C1CCCN(Cc2ncc[nH]2)C1 (configuration not stated) |  | inactive: -22.6%
16 | Clc1cccc(CNCCc2ccc3c(c2)OCO3)c1 | inconclusive: 10.3 µM [inhibitor, partial curve] | 
17 | COc1cc2c3cc1Oc1cc(ccc1O)C[C@@H]1c4c(cc(OC)c(O)c4Oc4ccc(cc4)C[C@H]3N(C)CC2)CCN1C | active: 4.61 µM | 
18 | CCCCn1c(NS(=O)(=O)c2ccc(C)cc2)c(C(=O)OCC)c2nc3ccccc3nc21 | inconclusive: 23.1 µM [inhibitor, single point] | 
19 | N#Cc1cccc(NC(=O)N2CCCC3(CCN(C(=O)Oc4ccccc4)CC3)C2)c1 |  | inactive: -12.1%
20 | Cc1cc(NC(=O)c2cccn(Cc3ccccc3)c2=O)no1 |  | inactive: -8.16%
21 | [O]=[Cr](=[O])([OH])[O][Cr](=[O])(=[O])[OH] | active: 16.8 µM | 
22 | c1ccc(CN2CCC3(CCNCC3)CC2)cc1 | active: 3.26 µM | 
23 | O=C(CNC(=O)OCc1ccccc1)NCC(=O)Nc1ccc(Br)cc1C(=O)c1ccccc1 |  | inactive: -20.6%
24 | COc1ccc(-c2cc(=Nc3ccccc3)c3cc(C)ccc3o2)cc1 | inconclusive: 20.6 µM [inhibitor, single point] | 

Row | SMILES | Potency | activity change, negative = growth inhibition
25 | Cc1ccc(C2CC3CCC(C2)N3Cc2ccccc2F)cc1 (configuration not stated) | inconclusive: 29.1 µM [inhibitor, single point] | 
26 | CSCCC(c1nnnn1C1CCCCC1)N1CCC2(CC1)C(=O)NCN2c1ccccc1 (configuration not stated) | inconclusive: 25.9 µM [inhibitor, single point] | 
27 | CCN(CC)C(=O)c1ccc(NC(=O)CN2CCc3cc(OC)c(OC)cc3C2)cc1 |  | inactive: -9.03%
28 | CCCc1[nH]nc2c1C1(C(=O)N(Cc3ccccc3)c3ccccc31)C(C(=O)OC)=C(N)O2 (configuration not stated) | inconclusive: 29.1 µM [inhibitor, single point] | 
29 | C=CCn1c(O)c(/C=N/N2CCCCC2c2cccnc2)c(=O)[nH]c1=S (configuration not stated) |  | inconclusive: -26.6% [inhibitor]
30 | CCOc1cc(C(=O)N2CCC3(CC2)OCCO3)cc(OCC)c1OCC |  | inactive: -3.07%
31 | O=c1[nH]c(O)c(C=Nc2ccc(F)c(Cl)c2)c(=O)[nH]1 |  | inactive: 17.1%
32 | C=CCn1c(O)c(C(=O)CCCCCC)c(=O)[nH]c1=O | active: 8.2 µM | 
33 | Cc1ncc(CNC(=O)N(CCCl)N=O)c(N)n1 | inconclusive: 20.6 µM [inhibitor, partial curve] | 
34 | Cc1cccc(CN2CCCC(C(=O)c3ccc(C(F)(F)F)cc3)C2)n1 (configuration not stated) | active: 18.4 µM | 
35 | Cc1ccc(S(=O)(=O)N(C)C[C@@H]2Oc3ncc(Br)cc3C(=O)N([C@H](C)CO)C[C@H]2C)cc1 | active: 9.2 µM | 
36 | COc1cc(C[C@@H](C)N)c(OC)cc1C | inconclusive: 58.1 µM [inhibitor, single point] | 
37 | CCN(CC)C(=O)c1ccc(NC(=O)COc2ccccc2F)cc1 |  | inactive: -13.5%
38 | O=C1NCN(c2ccccc2)C12CCN(C(c1cccs1)c1nnnn1Cc1ccccc1)CC2 (configuration not stated) | inconclusive: 20.6 µM [inhibitor, single point] | 
39 | CC1CCN(c2ccccc2NC(=O)c2cc3ccccc3o2)CC1 | inconclusive: 16.4 µM [inhibitor, single point] | 
40 | CCOC(=O)[C@]12Cc3cc4ccccc4cc3[C@H]1N(Cc1ccccc1)C(=O)c1cc(OC)ccc12 | active: 6.51 µM | 
41 | CN1CC(C(=O)c2ccc([N+](=O)[O-])cc2)C(c2ccc(Cl)cc2)C1 (configuration not stated) | inconclusive: 18.4 µM [inhibitor, partial curve] | 
42 | COc1ccccc1Cn1c(SCC#N)nc2cc(C(=O)N3CCC4(CC3)OCCO4)ccc2c1=O | inconclusive: 25.9 µM [inhibitor, single point] | 
43 | COc1ccc(CC(C)NCCC(c2ccccc2)c2ccccc2)cc1 (configuration not stated) | active: 16.4 µM | 
44 | CC(=O)N1CCCc2cc(S(=O)(=O)N3CCCC(C(=O)Nc4cccc(F)c4)C3)ccc21 (configuration not stated) | inconclusive: 25.9 µM [inhibitor, single point] and inconclusive: 18.4 µM [inhibitor, partial curve] | 
45 | COC(=O)c1ccc(CC(C(=O)c2ccccc2)N(C)C)cc1 (configuration not stated) | inconclusive: 29.1 µM [inhibitor, single point] | 
46 | O=C(O)c1cccc(NC(=O)N2C[C@H]3C[C@@H](C2)c2cccc(=O)n2C3)c1 |  | inactive: 8.8%
47 | Cc1cc(OCC(=O)NCC(O)c2ccccc2)c2c3c(c(=O)oc2c1)CCC3 (configuration not stated) | inconclusive: 29.1 µM [inhibitor, single point] | 
48 | CCN1C(=O)C(=C2C=C(C)N(Cc3ccco3)C(C)=C2)C(=O)N(CC)C1=S | inconclusive: 23.1 µM [inhibitor, single point] | 

Row | SMILES | Potency | activity change, negative = growth inhibition
49 | COC(=O)C1=C(C)NC(C)=C(C(=O)OCC(C)=O)C1c1ccccc1[N+](=O)[O-] (configuration not stated) | active: 11.9 µM | 
50 | C[C@H]1CCC/C=C/[C@@H]2C[C@H](O)C[C@H]2[C@H](O)/C=C/C(=O)O1 | active: 14.6 nM and active: 651 nM | 
51 | CC(NS(=O)(=O)OCC(Cl)(Cl)Cl)c1ccccc1 (configuration not stated) |  | inactive: 5.08%
52 | CCC1C(C)=NN=C(c2ccc(OC)c(OC)c2)c2cc(OC)c(OC)cc21 (configuration not stated) | inconclusive: 26.6 µM [inhibitor, single point] | 
53 | C=C1CCN([C@@H](Cc2ccccc2)C(=O)Nc2ccc(OC)cc2)S(=O)(=O)c2ccccc21 | inconclusive: 18.4 µM [inhibitor, single point] | 
54 | CN1C(=O)N(C)C(=O)C(CCc2ccccn2)(CCc2ccccn2)C1=O |  | inactive: 1.05%
55 | Nc1nc(N)c2nc(CNc3ccc(C(=O)NC(CCC(=O)O)C(=O)O)cc3)cnc2n1 (configuration not stated) |  | inactive: -96.1%
56 | C/C(=N\OC(=O)NC(C)C)c1sc(-c2ccccc2)nc1C | inconclusive: 29.1 µM [inhibitor, single point] | 
57 | C[C@@H]1CC2(CCCC[N+]2(C)C)C[C@H]1C |  | inactive: -15.1%
58 | CCN(CC)CCCOC(=O)C(OC)(c1ccccc1)c1ccccc1 |  | inactive: -2.25%
59 | Cc1ccccc1Nc1c(-c2ccc(Br)cc2O)nc2sccn12 | inconclusive: 20.6 µM [inhibitor, single point] | 
60 | CCOc1cc(C2C(C#N)=C(N)Oc3c2c(=O)oc2ccccc32)ccc1OC(=O)c1cccs1 (configuration not stated) |  | inactive: -18.7%
61 | COc1ccc(P2(=O)Nc3ccccc3N2)cc1 | inconclusive: 20.6 µM [inhibitor, single point] | 
62 | CC(=O)C(Sc1ncnc2c1nnn2-c1ccc(F)cc1)C(=O)N(C)C (configuration not stated) | active: 20.6 µM | 
63 | CCCC/C(C)=C/[C@@H](NP(=O)(c1ccccc1)c1ccccc1)c1ccccc1 | active: 16.4 µM | 
64 | CCN(CC)C(=O)c1ccc(NC(=O)CCn2nc(-c3ccc(Cl)cc3)c3ccccc3c2=O)cc1 | active: 18.4 µM | 
65 | CN1C[C@H](C(=O)NC2(C)OC3(O)[C@@H]4CCCN4C(=O)[C@H](Cc4ccccc4)N3C2=O)CC2c3cccc4[nH]cc(c34)C[C@H]21 (some centres not stated) | active: 16.4 µM | 
66 | Cc1ccc2nc(-c3ccncc3)cc(C(=O)N3CCC4(CC3)OCCO4)c2c1 | inconclusive: 16.4 µM [inhibitor, partial curve, poor fit] | 
67 | COC(=O)C1=C(c2ccc(F)cc2F)C[C@@H]2CC[C@H]1N2C(=O)N1CCC(C)CC1 | active: 10.3 µM | 
68 | CN1C[C@@H](NS(=O)(=O)N(C)C)C[C@@H]2c3cccc4c3c(cn4C)C[C@H]21 | inconclusive: 29.9 µM [inhibitor, single point] | 
69 | COc1cccc(NC(=O)C2CCN(S(=O)(=O)c3cc(-c4noc(C)n4)ccc3C)CC2)c1 | active: 18.4 µM | 
70 | COc1ccc(C(C)(C)C)cc1NC(=O)CCCn1c(=O)oc2ccccc21 | inconclusive: 29.1 µM [inhibitor, partial curve] | 
71 | Cc1cc(-c2nc3ccccc3s2)ccc1NC(=O)c1cc(Cl)ccc1Cl | inconclusive: 29.1 µM [inhibitor, single point] | 
72 | CCCCn1c(=O)c(C(=O)NC(C)c2ccccc2)c(O)c2ccccc21 (configuration not stated) | inconclusive: 20.6 µM [inhibitor, single point] | 
